# Experimental data reported in PubChem BioAssay (NCI).
# Several values for one entry are separate records, joined by “and”; a condition that tells them apart may be missing. Identical values can stand only once.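 Protocol summary: plate cells (96-well), add compound at 5 concentrations, incubate 48 h, interpolate endpoints linearly. Abbreviation: GI50, concentration required for 50% inhibition of growth. TGI: total growth inhibition.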
# Tested on: NCI-H322M lung
# Assay: inhibition of tumour cell growth, NCI panel, 48 h
SMILES,TGI,GI50
CC(=Nc1ccc(Cl)cc1)c1ccncc1,> 100 µM,
Clc1nc(Cl)c2ncn(-c3ccccc3)c2n1,12.8 µM,3.22 µM
CCCCCCCCCCCCC(O)C1CCC(C(O)CCCCC(O)CCCCCC2CC(CC(C)=O)C(=O)O2)O1 (stereo unspecified),22.6 µM,3.63 µM
Cc1cc(C)c(NS(=O)c2ccc(Cl)cc2)c(C)c1 (stereo unspecified),> 100 µM,
NC(=O)c1c[nH]c2ncnc(N)c12,> 100 µM,43.9 µM
CCOC(=O)C(C(=O)OCC)c1cc(-c2cc3ccccc3o2)oc(=O)c1C#N,> 100 µM,
COc1cc2c(cc1NC(=O)c1ccccc1)c1c(n2S(=O)(=O)c2ccccc2)CCN(S(=O)(=O)c2ccccc2)C1,> 100 µM,
CC(CC(=O)N1C2CC3CCC2(CS1(=O)=O)C3(C)C)[Si](C)(C)C (stereo unspecified),> 100 µM,
OC1C2CCCCN2C[C@@H](O)[C@H]1O (stereo partly specified),> 100 µM,
Cn1cc(-c2csc(-c3ccccc3)n2)c2cccnc21,36.7 µM,15.1 µM
CCOC(=O)c1sc2nc(SC)nc3c2c1NC(=O)CN3c1ccc(F)cc1,> 100 µM,
CC(=O)Oc1ccc(C2OC(c3ccc4ccccc4c3OC(C)=O)=NN2C(C)=O)c(OC(C)=O)c1 (stereo unspecified),28.4 µM,0.295 µM
CCOC(=O)/C=C(/C(=O)OCC)n1ccc(=O)n(Cc2cn(CCCCOC(C)=O)nn2)c1=O,> 100 µM,
COc1ccc(OC(=O)N2C/C(=C\c3ccccc3)C(=O)/C(=C/c3ccccc3)C2)cc1,> 100 µM,
COc1cc(-c2nc(N)c(C#N)c3c2CCS(=O)(=O)c2ccc(C)cc2-3)cc(OC)c1OC,> 100 µM,
N#CC1=C(N)N=C(N2CCOCC2)C(C#N)C12Nc1ccccc1S2 (stereo unspecified),61.3 µM,23.1 µM
c1ccc(-c2cc3nc4ccccc4nc3cc(-c3ccccc3)[nH][nH]2)cc1,> 100 µM,
Nc1c(F)c(F)c2c(c1F)N(CCCCCl)c1ccccc1S2,> 100 µM,
Nc1ccc(-c2nc3ccccc3s2)cc1CO,> 100 µM,
CC(=O)NC1C(OCc2ccccc2)OC(CO)C(O)C1OCC(=O)NC(C(=O)NC(CCC(=O)NCCCCCC(=O)Nc1ccc2c(c1)CN1C(=O)c3ccccc3C1=N2)C(N)=O)C(C)C (stereo unspecified),39.4 µM,
O=C1C(Cl)C(c2ccc(O)cc2)N1n1cnc2ccccc2c1=O (stereo unspecified),> 100 µM,
Cc1ccc(NC(=O)c2cccc(OP(=O)(Nc3ccc(C)cc3)Nc3ccc(C)cc3)c2)cc1,> 100 µM,
N#Cc1c(-c2ccccc2)cn(C(=O)c2ccccc2)c1N,> 100 µM,
CCOC(=O)c1c(-c2ccccc2)n2c(=O)cc(C)c3c(O)c(O)cc1c32,> 100 µM,3.75 µM

SMILES,TGI,GI50
COc1cccc(CCn2c(N)c(-c3cc(Cl)cc(Cl)c3)c3ccc([N+](=O)[O-])cc3c2=O)c1,> 60.4 µM,
CC(=O)OC(C(=O)[O][Ge]([CH3])([CH3])[CH3])c1ccccc1 (stereo unspecified),> 100 µM,> 100 µM
C/C=C1\Oc2ccc(OC)cc2S1(=O)=O,> 100 µM,
CC(C)=CCC/C(C)=C/Cc1c2c(c3oc(-c4ccc(O)c(O)c4)c(O)c(=O)c3c1O)C=CC(C)(C)O2,5.77 µM,
[O-]c1c2c(nn1-c1ccc(F)cc1)c1ccccc1c[n+]2Cc1ccccc1,> 100 µM,
O=C(Nn1c(-c2ccccc2)nc2ccccc2c1=O)c1cccc([N+](=O)[O-])c1,> 100 µM,
COc1cc(/C=C2\CCC/C(=C\c3cc(CN4CCCC4)c(O)c(OC)c3)C2=O)cc(CN2CCCC2)c1O,15.9 µM,4.36 µM
CC(C)CCNC(=O)c1ccc(CNC(=O)/C=C/c2ccc3ccccc3c2)cc1,> 100 µM,
CN1CCS(=O)(=O)NC(Cc2ccccc2)C(=O)N2CCCC2C1=O (stereo unspecified),> 100 µM,
COc1cc(-c2oc3c(OC)c(O)c(OC)c(O)c3c(=O)c2OC)cc(OC)c1OC,> 100 µM,
O=C1CCc2cc(Br)ccc2O1,> 100 µM,
C/C(=C\[Si](C)(C)c1ccco1)C(C)(O)[C@H](C)O (stereo partly specified),> 100 µM,
COc1cc2c(Nc3ccc(-c4ccc(N)cc4)cc3)ncnc2c(OC)c1OC,> 100 µM,12.9 µM
Cc1cn(C2CC(O)C(Cn3nncc3Cn3cnc4c(N)ncnc43)O2)c(=O)[nH]c1=O (stereo unspecified),> 100 µM,
Cn1c2c(c3ccccc31)CCN1C[C@@H]3CCCC[C@H]3C[C@@H]21,> 100 µM,3.43 µM
COc1ccc2[nH]c(C(=O)OCc3ccc4c(Br)cc(Br)c(O)c4n3)cc2c1,3.05 µM,1.56 µM
COc1nc(=O)[nH]c2c1C(c1ccc([N+](=O)[O-])cc1)c1c(OC)nc(=O)[nH]c1O2,> 100 µM,
CCN(N=O)C1C2(CCCC2)NC(=O)C12CCCC2 (stereo unspecified),> 100 µM,
Cc1ccc(NC(=S)NNC(=S)Nc2ccc(C)cc2)cc1,> 100 µM,82.2 µM
CCOC(=O)C(C(=O)OCC)=C1C=C(c2ccccc2)c2ccccc21,> 100 µM,
COc1ccc2nc3ccc(OC)cc3c(S(=O)Cc3ccccc3)c2c1 (stereo unspecified),36.9 µM,
CCCCC(CC)C(=O)Oc1ccc(C(=O)c2ccccc2)c(O)c1 (stereo unspecified),> 100 µM,
COc1ccc(-c2nc3sccn3c2-c2ccnc(NCCNS(=O)(=O)c3ccc(C(F)(F)F)cc3)n2)cc1,> 100 µM,5.81 µM
CCN1C(=O)/C(=c2\sc3n(c2=O)C2C(NN=3)N(CC)C(=O)N2CC)c2ccccc21 (stereo unspecified),> 100 µM,4.73 µM

SMILES,TGI,GI50
NS(=O)(=O)c1ccc(N=Nc2c(O)[nH]c3ccc(C(=O)NCCCn4ccnc4)cc23)cc1,> 25 µM,> 25 µM
CC[O-].CC[O-].O=C1C=C([O-])C(=O)c2ccccc21.O=C1C=C([O-])C(=O)c2ccccc21.[Ti+4],> 66.2 µM,16.1 µM
COc1ccc2c(O)c1-c1c(OC)ccc(c1O)SSc1ccc(OC)c(c1O)-c1c(OC)ccc(c1O)SS2,> 100 µM,
O=C(O)C1=C(CO)Oc2cc3c(cc2C1c1ccc2c(c1)OCO2)OCO3 (stereo unspecified),> 100 µM,
Nc1c(S(=O)(=O)O)cc(S(=O)(=O)O)c2ccc(N=Nc3ccccc3)c(O)c12,> 100 µM,
N#Cc1ccc(C2OCC3CC=CCC3CO2)cc1 (stereo unspecified),> 100 µM,
COc1ccccc1/C=C1\CCC(Cc2ccccc2)(CN(C)C)C1=O (stereo unspecified),> 67.1 µM,
COC1(OC)CCN(Cc2ccccc2)C1=O,> 78.4 µM,
CC(C)[C@@]12C[C@@H](OC(=O)COC(=O)c3ccccc3)[C@@](C)(O1)[C@@H]1CC[C@@H](C)[C@H]1[C@@H]2OC(=O)/C=C/c1ccccc1,> 100 µM,> 100 µM
CC[C@]12C=CCN3CC[C@]4(C(=C(C(=O)OC)C1)Nc1cc5c(cc14)[C@@H]1[C@H](O5)[C@@H](O)[C@@]4(CC)CC(C(=O)OC)=C5Nc6ccccc6[C@@]56CCN1[C@@H]46)[C@@H]32,25 µM and 59.6 µM,0.755 µM and 0.933 µM
Cc1cc(O)ccc1C1(c2ccc(O)cc2C)OC(=O)c2ccccc21,33.5 µM,18.5 µM
COc1ccccc1CNCCCN1C(=O)c2ccc3c4c(ccc(c24)C1=O)C(=O)N(CCCNCCCCNCCCN)C3=O,6.63 µM,1.2 µM
CCOC(=O)C#Cc1cccc(C#CC(=O)OCC)c1,> 35.1 µM,
CC/C(Cl)=N\OC(=O)Nc1ccc(F)c(Cl)c1,31.6 µM,
COc1ccc(N=Nc2ccc(O)c(=O)cc2)cc1,> 100 µM,3.18 µM
Cc1ccc(C2=NN(c3ccc(S(=O)(=O)NC(=O)NCc4ccccc4)cc3)C(c3ccc(N(C)C)cc3)C2)c(C)c1 (stereo unspecified),32.4 µM,4.86 µM
CCOC(=O)C1=C(C)NC2SC(=O)/C(=C\c3cccc(Cl)c3)N2C1c1ccccc1 (stereo unspecified),> 100 µM,> 100 µM
CCCCCCCCCCCCCCCCCCN(C)CC(COC)OP(=O)([O-])OCC[N+](C)(C)C (stereo unspecified),19.5 µM,
O=S(=O)(NCCNc1nccc(-c2c(-c3ccc(F)cc3)nc3sccn23)n1)c1ccc(O)cc1,51.8 µM,5.47 µM
CN1C(=O)C(=Cc2ccc(Br)cc2)C(=O)N(C)C1=O,> 100 µM,
CNC(=O)O/N=C1\N(C)CN(c2ccccc2)C12CCN(CCCC(=O)c1ccc(F)cc1)CC2,> 100 µM,
CCOC(=O)N1c2ccccc2N(C(=O)OCC)C1CC(=O)/C=C/c1ccccc1,7.93 µM,
N#Cc1c(C#N)c(SSc2c(C#N)c(C#N)c(N)n2-c2cccc3ccccc23)n(-c2cccc3ccccc23)c1N,> 55.4 µM,
Cc1[nH]c(C(=O)Nc2cccc(OC3CCNCC3)c2)c(Cl)c1Cl,3.3 µM,1.7 µM

SMILES,TGI,GI50
C#CN1C(=O)c2c(c(-c3ccccc3)c(-c3ccc(Oc4ccc(-c5c(-c6ccccc6)c6c(c(-c7ccccc7)c5-c5ccccc5)C(=O)N(C#C)C6=O)cc4)cc3)c(-c3ccccc3)c2-c2ccccc2)C1=O,> 100 µM,
CN1CCCS/C1=C1/SC(=S)N(c2ccccc2)C1=O,> 100 µM,
COC(=O)c1cc(/C=C/C(=O)Cc2ccccc2)cn1S(=O)(=O)c1ccccc1,> 100 µM,
CC1=CC2(C)C=C[C@@H]1C(=O)[C@@]1(C)CC[C@@](O)(C(C)C)[C@H]1CC2,43.8 µM,
CC(=O)Oc1ccc2c(=O)c(C(C)=O)coc2c1,> 100 µM,
CC(C)(C)OC(=O)N(O)CCCn1cnc2c(NC3CC3)ncnc21,> 100 µM,
O=C1c2ccccc2C(=O)c2c1oc1cc(O)c(Cl)cc21,23.6 µM,
O=C1NC(c2ccc3ccccc3c2)Nc2ccccc21 (stereo unspecified),> 100 µM,
CO[P@@]1(=O)O[C@@H](c2ccccc2)[C@H](O)[C@@]1(O)c1ccccc1,> 100 µM,
CC1=C2CC[C@@]3(C)C(=CCC3O)C2(C)CCC1=O (stereo partly specified),> 100 µM,
CCCCCOC(=O)Nc1nc(=O)n(C2OC(C)C(O)C2O)cc1F (stereo unspecified),> 10000 µM,> 10000 µM
OC1(C(Sc2ccccc2)Sc2ccccc2)CCCCCC1,> 100 µM,
CC(C)n1cc(-c2ccc3c(c2)N(C)CC3)c2c(NS(=O)(=O)c3ccn(C)n3)ccnc21,> 100 µM,95.9 µM
CC(=O)OCc1nnn2c1C(OC(C)=O)CC2 (stereo unspecified),> 100 µM,
CCOc1cc(Cl)c(C(C)NC(=O)c2cccc(OC)c2)cc1OCC (stereo unspecified),> 100 µM,> 68.6 µM
Cc1c(O)cccc1C(=O)N[C@@H](CSc1ccccc1)[C@H](O)CN1C[C@H]2CCCC[C@H]2C[C@H]1C(=O)NC(C)(C)C,12.1 µM and > 73 µM,3.95 µM and 10.1 µM
CC(C)N(C(C)C)S(=O)(=O)CC12CCC(C/C1=N\O)C2 (stereo unspecified),> 100 µM,
O=P1(Oc2ccc(Cl)cc2Cl)Oc2cc3ccccc3cc2O1,> 100 µM,
NNC(=O)/C(NC(=O)c1ccccc1)=C(\N)c1cccc([N+](=O)[O-])c1,> 100 µM,
COc1ccc(-c2cc(=O)c3c(OC)c4ccoc4c(/C=C/C=O)c3o2)cc1,64.4 µM,5.06 µM
CCN1CCN(Cc2ccc(Nc3ncc(F)c(-c4cc(F)c5nc(C)n(C(C)C)c5c4)n3)nc2)CC1,10.6 µM,0.398 µM
CN(C)c1n2c3ccc([N+](=O)[O-])cc3n3c(N(C)C)[n+]4ccccc4c3c2c2cccc[n+]12,> 100 µM,
